Measured values published in the RNAGym collection of RNA variant scans (doi:10.7554/elife.90254).
Read counts are not given, so values of variants with three or more changes are uncertain.

B1: OR4K15 (parent)
chain: GUUAACGGUCAUAGGCCAUGGAAACUAGGAGCACCAUUUCGCUGCCAGUGAAGAAAUGAACAAAGAAAAUCUGGGCCAGGCAGGCAUCAAAAGAAAUAGUCUUGCGCUCAACCAGAAAGUCUGUAAUCAUUUUAAGGGUA

Variants of: B1
Test: self-cleavage, relative activity (ratio to wild type); higher = more cleavage; in vitro, sequencing; the parent is a self-cleaving ribozyme

Q: With UUUAACGGUCAUAGGCCAUGGAAACUAGGAGCACCAUUUCGCCGCCAGUGUAGAAAUGAACAAAGAAAAUCUGGGCCAGGCAGGCAUCAAAAGAAAUAGUCUUGCGCUCAACCAGAAAGUCUGUAAUCAUUUUAAGGGUA [G1U U43C A51U] as the variant, how does the self-cleavage read?
A: 2.2

Q: With AUUAACGGUCAUAGGCCAUGGGAACUAGGAGCACCAUUUCGCUGCCAGUGGAGAAAUGAACAAAGAAAAUCUGGGCCAGGCAGGCAUCAAAAGAAAUAGUCUUGCGCUCAACCAGAAAGUCUGUAAUCAUUUUAAGGGUA [G1A A22G A51G] as the variant, how does the self-cleavage read?
A: 1.67

Q: Which self-cleavage does the source give for AUUAACGGUCAUAGGCCAUGGAAACUAGGAGCACCAUUUCGCUGCCAGUGAAGAAAUGAACAAAGAAAAUCUGGGCCAGGCAGGCAUCAAAAGAAAUAGUCUUGCGUUCAACCAGAAAGUCUGUAAUCAUUUUAAGGGCA [G1A C107U U139C] here?
A: 0

Q: With GAUAACGGUCAUAGGCCAUGGAGACUAGGAGCACCAUUUCGCUGCCAGUGAAGAAAUGAACAAAGAACAUCUGGGCCAGGCAGGCGUCAAAAGAAAUAGUCUUGCGCUCAACCAGAAAGUCUGUAAUCAUUUUAAGGGUA [U2A A23G A68C A86G] as the variant, how does the self-cleavage read?
A: 0.88

Q: For AUUAACGGUCAUAGGCCAUGGAAACUAGGGGCACCAUUUCGCUGCCAGUGAAGAAAUGAACAAAGAUAAUCAGGGCCAGGCAGGCAUCAAAAGAAAUAGUCUUGCGCUCAACCAGAAAGUCUGUAAUCAUUUUAAGGGUA [G1A A30G A67U U72A], which self-cleavage is on record?
A: 1.04

Q: With CUUAACGGUCAUAGGCCAUGGAAACUAGGAGCACCAUUUCGCUGCCAGUGAAGAAAUGAACAAAGUAAAUCUGGGCCAGGCAGGCAUCAAAAGAAAUAGUCUUGCGCUCAACCAGAAAGUCUGUAAUCAUUAUAAGGGUA [G1C A66U U132A] as the variant, how does the self-cleavage read?
A: 0.68

Q: With GAUAGCGGUCAUAGGCCAUGGAAACUAGGAGCACCAUUUCGCUGCCAGUGAAGAAAUGAACAAAGAAAAUCUGGGCCAGGCAGGCAUCAAAAGAAAUAGUCUUGCGCUCAACCAGAAAGUCUGUAAUCAUUUUAGGGGUA [U2A A5G A135G] as the variant, how does the self-cleavage read?
A: 1.2

Q: For ACUAACGGUCAUAGGCCAUGGAAACUAGGAGCACCAUUUCGCUGCCAGUGAAGGAAUGAACAAAGAAAAUCUGGGCCAGGCAGGCAUCAAAAGAAAUAGUCUUGCGCUCAACCAGAAAGUCUGUAAUCAUUUUAAGGGUA [G1A U2C A54G], which self-cleavage is on record?
A: 1.25

Q: With UUUAACGGUCAUAGGCCAUGGAAACUAGGAGCACCAUUUCGCUGCCAGUGAAGAAAUGAACAAAGAAAUUCUGGGCCAGGCAGGCAUCAAAAGAAAUAGUCAUGCGCUCAACCAGAAAGUCUGUAAUCAUUUUAAGGGUA [G1U A69U U102A] as the variant, how does the self-cleavage read?
A: 1.91

Q: Which self-cleavage does the source give for UUUAACGGUCAUAGGCCAUGGAAACUAGGAGCACCAUUUCGCUGCCAGUGAAGAAACGAGCAAAGAAAAUCUGGGCCAGGCGGGCAUCAAAAGAAAUAGUCUUGCGCUCAACCAGAAAGUCUGUAAUCAUUUUAAGGGUA [G1U U57C A60G A82G] here?
A: 0.44

Q: With AUUAACGGUCAUAGGCCAUGGCAACUAGGAGCACCAUUUCGCUGCCAGUGAAGAAAUGAACAAAGAAAAUCUGGGCCAGGCCGGCAUCAAAAGAAAUAGUCUUGCGCUCAACCAGAAAGUCUGUAAUCAUUUUAAGGGUA [G1A A22C A82C] as the variant, how does the self-cleavage read?
A: 0.48

Q: Which self-cleavage does the source give for CUUAACGGUCAUAGGCCAUGGAAACUAGGAGCACCGUUCCGCUGCCAGUGAAGAAAUGAACAAAGAAAAUCUGGGCCAGGCAGGCAUCAAAAGAAAUAGUCUUGCGCUCAACCAGAAAGUCUGUAAUCAUUUCAAGGGUA [G1C A36G U39C U133C] here?
A: 1.44

Q: With AUUAACGGUCAUGGGCCAUGGAAACUAGGAGCGCCAUUUCGCUGCCAGUGAUGAAAUGAACAAAGAAAAUCCGGGCCAGGCAGGCAUCAAAAGAAAUAGCCCUGCGCUCAACCAGAAAGUCUGUAAUCAUUGUAAGGGUA [G1A A13G A33G A52U U72C U100C U102C U132G] as the variant, how does the self-cleavage read?
A: 0.22

Q: With UGUAACGGUCAUAGGCCGUGGAAACAAGGACCACAAUUUCGCUGCCAGUGAAGAAAUGAACAAAGAAAAUCUGGGCCAGGCAGGCAUCAAAAGAAAUAGUCUUGCGCUCAACCAGAAAGUCUGUAAUCAUUUUAAGGGUA [G1U U2G A18G U26A G31C C35A] as the variant, how does the self-cleavage read?
A: 1.01

Q: Which self-cleavage does the source give for GAUAACGGUCAUAGGCCAUGGAGACUAGGAGCACCAUUUCGCUGCCAGUGAAGAAAUGAACAAAGAAAAUCCGGGCCAGGCAGGCAUCAAAAGAAAUAGUCUUGCGCUCAACCGGAAGGUCUGUAAUCAUUUUAAGGGUA [U2A A23G U72C A114G A118G] here?
A: 1.76

Q: With AUUAACGGUCAUAGGCCAUGGAAACUAGGAGCACCAUUUCGCUGCCAGUGGAGAAGUGAACAAAGAAAAUCUGGGCCAUGCAGGCAUCAAAAGAAAUAGUCUUGCGCUCAACCAGAAAGUCUGUAAUCAUUCUAAGGGUA [G1A A51G A56G G79U U132C] as the variant, how does the self-cleavage read?
A: 1.01

Q: Which self-cleavage does the source give for GAUAACGGUCGUAGGCCAUGGAAACUAGGAGCGCCAUUUCGCUGCCAGUGAAGAAAUGAACAAAGAAAAUCUGGGCCAGGCAGGCAUCAAAAGAAAUAGUCUUGCGCUCAACCAGAAAGUCUGUAAUCAUUUUAAGGGUA [U2A A11G A33G] here?
A: 0.62

Q: Which self-cleavage does the source give for UAUAACGGUCAUAGGCCAUGGAAACUAGGAGCACCAUUUCGCUGCCAGUGAAGAAAUGAACAAAGAAAAUCUGGGCCAGGCAGGCAUCAAAAGAAAUAGUCUUGCGCUCAACCAGGAAGUCUGUAAUCAUUUUAGGGGUA [G1U U2A A116G A135G] here?
A: 0.7

Q: For GAUAACGGUCAUAGGCCAUGGAAGCUAGGAGCACCAUUUCGCAGCCAGUGAAGAAAUGAACAAAGAAAGUCUGGGCCAGGCAGGCAUCAAAAGAAAUAGUCUUGCGCUCAACCAGAAAGUCUGUACUCAUUUUAAGGGUA [U2A A24G U43A A69G A126C], which self-cleavage is on record?
A: 1.07

Q: With AUUAGCGGUCAUAGGCCAUGGAAACUAGGAGCACCAUUUCGCUGCCAGUGAAGAAAUGAACAAAGGAAAUCUGGGCCAGGCAGGCAUCAAAAGAAAUAGUCAUGCGCCCAACCAGGAAGUCUGUAAUCAUUUUAAGGGUA [G1A A5G A66G U102A U108C A116G] as the variant, how does the self-cleavage read?
A: 0
